Among all 350,000 compounds or so, about 31,000 (8.9%) were called active. Inconclusive means that the source gave no clear call. Such entries were picked first, then a sample of the others. Calls come from the whole dose curve; as a rule, active = well fitted inhibition curve with a large enough effect; inconclusive = small, poorly fitted or top-dose-only effect; inactive = no such curve, though single readings can be large or run the other way. Where the call is inconclusive, the potency comes from a doubtful curve fit.
The molecules below were run against Histone-lysine N-methyltransferase EHMT2 (Homo sapiens) (UniProt Q96KQ7) (assay: qHTS Assay for Inhibitors of Histone Lysine Methyltransferase G9a). Conditions: G9a H3K9 monomethylation, AlphaScreen, 2 h; activity, negative = inhibition: at 59 µM (top of the series) unless noted.
Chain of UniProt Q96KQ7 (Q96KQ7 whole entry, looked up): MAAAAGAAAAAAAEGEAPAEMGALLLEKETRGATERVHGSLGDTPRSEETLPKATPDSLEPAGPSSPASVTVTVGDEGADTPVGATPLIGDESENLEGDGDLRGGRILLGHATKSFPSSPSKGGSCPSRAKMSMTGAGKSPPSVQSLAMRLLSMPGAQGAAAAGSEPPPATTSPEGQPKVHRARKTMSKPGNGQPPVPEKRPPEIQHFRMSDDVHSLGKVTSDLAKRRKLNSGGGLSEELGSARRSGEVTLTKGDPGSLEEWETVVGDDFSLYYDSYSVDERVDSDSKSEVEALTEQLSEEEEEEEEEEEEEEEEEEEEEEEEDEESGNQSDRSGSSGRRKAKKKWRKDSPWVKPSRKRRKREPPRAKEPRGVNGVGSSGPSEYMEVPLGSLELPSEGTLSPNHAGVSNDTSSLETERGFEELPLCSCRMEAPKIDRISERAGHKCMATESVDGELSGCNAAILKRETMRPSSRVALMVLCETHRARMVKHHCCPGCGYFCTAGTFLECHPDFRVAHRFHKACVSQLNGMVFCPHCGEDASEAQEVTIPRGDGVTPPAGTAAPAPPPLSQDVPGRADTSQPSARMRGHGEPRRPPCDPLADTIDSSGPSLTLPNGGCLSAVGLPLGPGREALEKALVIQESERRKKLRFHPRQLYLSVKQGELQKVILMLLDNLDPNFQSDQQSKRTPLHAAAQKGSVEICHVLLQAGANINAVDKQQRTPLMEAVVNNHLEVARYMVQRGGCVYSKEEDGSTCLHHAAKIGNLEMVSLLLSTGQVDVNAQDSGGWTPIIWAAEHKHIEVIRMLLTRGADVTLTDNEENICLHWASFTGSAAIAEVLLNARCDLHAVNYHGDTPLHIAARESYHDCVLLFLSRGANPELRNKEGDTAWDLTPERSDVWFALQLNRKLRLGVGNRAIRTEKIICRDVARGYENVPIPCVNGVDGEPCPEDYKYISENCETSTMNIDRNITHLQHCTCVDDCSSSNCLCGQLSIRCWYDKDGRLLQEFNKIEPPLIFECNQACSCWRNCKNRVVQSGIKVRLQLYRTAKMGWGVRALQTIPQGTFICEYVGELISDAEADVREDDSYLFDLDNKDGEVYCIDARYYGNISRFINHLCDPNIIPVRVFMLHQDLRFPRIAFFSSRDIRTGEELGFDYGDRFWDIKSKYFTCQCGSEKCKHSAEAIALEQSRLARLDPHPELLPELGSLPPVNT
Outline: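 AlphaScreen detection with an anti-monomethyl H3K9 antibody quantified product after a 2 h room-temperature reaction containing 500 nM biotinylated H3K9 peptide, 20 µM SAM and 20 nM enzyme, which had been preincubated 15 min with compound.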
% is set by controls: 0 for no effect and ±100 for the full control effect; potency is the fitted concentration of half-maximal effect; tags give direction and shape of the fitted curve.
Note: nearly all actives have a fitted effect of over 75% in size.

| SMILES | Potency | activity, negative = inhibition |
| --- | --- | --- |
| Cc1cccc(N(Cc2cc(=O)[nH]c3ccccc23)C(=O)CCl)c1 | active: 5.62 µM |  |
| Nc1c(C(=O)N/N=C/c2ccc(F)cc2)oc2nc(-c3ccccc3)cc(-c3ccco3)c12 | active: 28.2 µM |  |
| CCOC(=O)c1c(NC(=O)c2cc(-c3cccc(Cl)c3)on2)sc(C)c1C | active: 12.6 µM |  |
| CN(C)c1ccc(-c2cncnc2N(C)Cc2ccco2)cc1 |  | inactive: 9.33% [at 0.501 µM] |
| Cc1nnc(-c2cnn(-c3ccccc3)c2N)n1Cc1ccc(F)cc1 | inconclusive: 89.1 µM [inhibitor, partial curve, poor fit] |  |
| CCc1noc(C)c1C(=O)Nc1cc(S(=O)(=O)N2CCOCC2)ccc1OC(C)C | active: 12.6 µM |  |
| O=C(NNc1c2ccccc2nc2ccccc12)c1cc2ccccc2cc1O | inconclusive: 3.16 µM [inhibitor, full curve] |  |
| O=S(=O)(NC1CC(NS(=O)(=O)OCC(Cl)(Cl)Cl)C2CCCCC12)OCC(Cl)(Cl)Cl (stereo not given) | inconclusive: 89.1 µM [inhibitor, single point] |  |
| O=Cc1cc(Cl)ccc1OCCN1CCC(Cc2ccccc2)CC1 | active: 25.1 µM |  |
| CC(=O)c1ccc(NC(=O)c2ccc(-n3cnnn3)cc2)cc1 | inconclusive: 39.8 µM [inhibitor, partial curve, poor fit] |  |
| CC(O)C(O)C(O)C(O)C1NCCS1 (stereo not given) | inconclusive: 31.6 µM [inhibitor, single point] |  |
| COc1ccc(CNC(=O)c2cccs2)cc1 |  | inactive: 7.07% |
| Clc1ccccc1-c1nn2c(-c3ccccn3)nnc2s1 | inconclusive: 89.1 µM [inhibitor, single point] |  |
| O=C(NCCc1ccccc1)Nc1ccc2c(c1)OCO2 |  | inactive: -21.2% [at 102 µM] |
| CCOc1ccc(C(=O)NCC(=O)Nc2ncccc2C)cc1OCC |  | inactive: -3.04% |
| CC(C)OC(=O)c1nnn(-c2nonc2N)c1CN1CCCCCC1 | inconclusive: 39.8 µM [inhibitor, single point] |  |
| COCCN1C(=O)C(=O)/C(=C(/O)c2ccc(S(=O)(=O)N3CCOCC3)cc2)C1c1ccc(O)c(OC)c1 (stereo not given) |  | inactive: -19.1% [at 102 µM] |
| Cn1c(=O)c2[nH]c(N=NNc3ccccc3F)nc2n(C)c1=O | active: 1.78 µM |  |
| O=C(OCc1cc(=O)n2c(n1)sc1ccccc12)c1ccc(O)cc1O | inconclusive: 89.1 µM [inhibitor, partial curve, poor fit] |  |
| O=C(NCCCN1CCCC1=O)c1ccc2c(=O)n(-c3ccccc3F)c(=S)[nH]c2c1 | active: 25.1 µM |  |
| COc1ccc(S(=O)(=O)NCc2cccn2Cc2cc(C)ccc2C)cc1OC |  | inactive: -0.955% [at 12.7 µM] |
| COc1ccc(NC(=O)/C(C#N)=C\c2ccc(OCc3ccc(C(=O)O)cc3)c(OC)c2)cc1 | inconclusive: 63.1 µM [inhibitor, partial curve, poor fit] |  |
| COC(=O)c1ccc(CSc2n[nH]c(C)n2)o1 |  | inactive: -2.29% |

| SMILES | Potency | activity, negative = inhibition |
| --- | --- | --- |
| Cc1c(OCC(=O)NC(Cc2ccc(Cl)cc2)C(=O)O)ccc2c3c(c(=O)oc12)CCC3 (stereo not given) | inconclusive: 89.1 µM [inhibitor, single point] |  |
| OC(COCc1ccc2c(c1)OCO2)CN1CCCCC1 (stereo not given) |  | inactive: -23.9% [at 102 µM] |
| CCN1CCN(Cc2ccc(NC(=O)c3cc(NC(=O)c4cnn(-c5ccccc5)c4N)cc(OC)c3)cc2C(F)(F)F)CC1 | inconclusive: 3.16 µM [inhibitor, partial curve, poor fit] |  |
| COc1ccc(C)cc1-n1nnnc1SC/C(O)=C(\C#N)c1nc2ccccc2[nH]1 | inconclusive: 3.16 µM [inhibitor, single point] |  |
| CCS(=O)(=O)N1CCc2cc(C(=O)NCCc3ccc(OC)c(OC)c3)ccc21 | inconclusive: 31.6 µM [inhibitor, partial curve, poor fit] |  |
| CC(=O)c1ccc(N2CCN(Cc3nc4ccccc4[nH]3)CC2)cc1 |  | inactive: 39.4% [at 102 µM] |
| COc1ccc(S(=O)(=O)NC(C)C(=O)N2CCCC2)cc1C (stereo not given) |  | inactive: -3.47% [at 102 µM] |
| Cc1ccc(C2CCN(C(=O)Nc3ccc(C)c(C)c3)C2)cc1 (stereo not given) |  | inactive: -3.32% |
| O=C(CN1CCN(C(c2ccccc2)c2ccccc2)CC1)N1N=CCC1c1ccccc1 (stereo not given) | inconclusive: 56.2 µM [inhibitor, partial curve] |  |
| O=C(CSc1nnc2scc(-c3ccccc3)n12)Nc1nsc(-c2ccccc2)n1 | inconclusive: 50.1 µM [inhibitor, partial curve, poor fit] |  |
| COc1cccc(NC(=S)N2CCn3c(nc4ccccc43)C2)c1 | inconclusive: 56.2 µM [inhibitor, partial curve] |  |
| CCOC(=O)N1CCN(C(=O)c2ccccc2SCC(=O)NCC2CCCCC2)CC1 |  | inconclusive: -93.4% [inhibitor] [at 2.33 µM] |
| O=C(CN(Cc1ccco1)C(=O)c1ccc(N2CCCC2=O)cc1)Nc1ccccc1C(F)(F)F |  | inactive: -4.57% |
| COc1cc(NC(=O)CC2C(=O)N(c3cccc(C)c3)C(=O)N2Cc2cccs2)cc(OC)c1 (stereo not given) | inconclusive: 8.91 µM [inhibitor, full curve] |  |
| CCOc1ccc(NC(=O)CN2CCN(C3c4ccccc4-c4ccccc43)CC2)cc1 | inconclusive: 39.8 µM [inhibitor, single point] |  |
| CCN(CC)C(=O)Cn1cc(S(=O)(=O)CC(=O)Nc2ccc3c(c2)OCCO3)c2ccccc21 | active: 56.2 µM |  |
| CCOc1ccc2nc(N(CCCN(C)C)C(=O)c3ccc(S(=O)(=O)N4CCCC4)cc3)sc2c1 | inconclusive: 89.1 µM [inhibitor, single point] |  |
| COc1cc(C(=O)N2CCN(C)C(C)C2)ccc1OC1CCN(C(C)=O)CC1 (stereo not given) |  | inactive: -38.4% [at 102 µM] |
| CCOC(=O)COc1nc(C)c(Br)c(OC)n1 | inconclusive: 89.1 µM [inhibitor, partial curve, poor fit] |  |
| Cc1cccc(C(=O)NNC(=S)NC(=O)c2cccs2)c1 | inconclusive: 39.8 µM [inhibitor, single point] |  |
| Cn1cccc1CC(=O)NNC(=S)Nc1ccccc1Cl | inconclusive: 39.8 µM [inhibitor, single point] |  |
| O=C(O)c1ccccc1S(=O)(=O)Cc1ccccc1 |  | inactive: -14.1% [at 12.7 µM] |
